Sequences and labels used below:
B1: chr12:6601462:6601463:-_ENSG00000111639_ENST00000229238|hu_mus|motif|central (ssRNA)
RNA: GGGAGUUCUACAGUCCGACGAUCCUCUCCUUGCUGGGAUAAGUCCUGUUCCCCUUCUCCAGGGUGACACAUUUCCCGUCCGGUCUGUACUUCCCAUGUCGGUUAAAGUGUUUGUAGAGAUAGCUGAUCCGUUUGUUAAGGUUACAACAGAGGAUUGAGCAUCA
B2: chr12:110819636:110819637:-_ENSG00000196510_ENST00000455511|hu_mus|motif|central (ssRNA)
RNA: GGGAGUUCUACAGUCCGACGAUCAAGCCUGAUGGCCUCCCGAAAGUGUAUGAUGGCUUCCUGGACCCUCCCCAUGUUCCGGAGCGCCGCCCCCUUGAGUAACAGAGCCUGGACGCUGUUGCUGUUCAGCUGGAUGGCCUUGGCCAACAGAGGAUUGAGCAUCA
B3: chr5:67718940:67718941:+_ENSMUSG00000029221_ENSMUST00000113676|mus_hu|FALSE|FALSE (ssRNA)
RNA: GGGAGUUCUACAGUCCGACGAUCGUAAAAGACUCAGUAUCUUCAUGGGGACUUCGUCGUCUGAUUUUUCGAAGUUGUUCUAGAUCACUGGAUUUGAGGCAGAACUCAUUUAUCGCUCUGACUCCAGUGAUGAAAUUAUUCUGACAACAGAGGAUUGAGCAUCA
B4: chr11:18536373:18536374:-_ENSG00000074319_ENST00000251968|hu_hu|FALSE|FALSE (ssRNA)
RNA: GGGAGUUCUACAGUCCGACGAUCAUAUGGGUAUGUGUCCAGUAGCCAUAGGCAUAUUGGAAUAUUGUAUGUAUUACCUCUAUAAGGCACAGGGAUUGUUCCAGUGAGGUUCAUUAGUUCCCUGGAACUGCCAUCGUUAAAAACCAACAGAGGAUUGAGCAUCA
B5: chr21:30439091:30439092:-_ENSG00000156261_ENST00000286788|hu_hu|FALSE|FALSE (ssRNA)
RNA: GGGAGUUCUACAGUCCGACGAUCCAGAAUUUUACAAACUCUGAUGUUAUCAACAUUGAAAUGGCCGGAAUCAGGAAAAAUAGAUACGCAUGCCUGAGCAAUAAGCUUGGCCAGAAAUACUUCAUUACCAUAUUGUUUACUCAUCAACAGAGGAUUGAGCAUCA
B6: chr7:65705844:65705845:+_ENSG00000169902_ENST00000304842|hu_mus|hu_hu_hu_mus_False|1_78 (ssRNA)
RNA: GGGAGUUCUACAGUCCGACGAUCAAACGGAUCUUUGUUACAUAAAUAAGGUGCCGGCUCCCCAUGCUUAACAAUGACCUCCAGAAGGAAGGCUUGCAUGGCAGAAUCUAGCACUUCAUCUGUGACACCCGCCUCAUCCAGGCGCAACAGAGGAUUGAGCAUCA
B7: chr16:94664741:94664742:+_ENSMUSG00000040785_ENSMUST00000117648|mus_mus|FALSE|FALSE (ssRNA)
RNA: GGGAGUUCUACAGUCCGACGAUCUGGCAUGGAUCUUUGCAUUGGAUACUCAGAAGAAAUGUUGGCCAAAGGUGUGUAAAUGCUAGUGAACUGCGACAGGCUAGGUACCAUGUUAAUGUACGCUGGUCGCUGGGUGAUGCCAAACAACAGAGGAUUGAGCAUCA
B8: 116060031_116060151_268_5pUTR_ENSMUSG00000020777_ENSMUST00000066587|mouse|control|control (ssRNA)
RNA: GGGAGUUCUACAGUCCGACGAUCGCUGGGGGCAGAGGAGGUGGCGACAGAAGUGACAGGCACCAAAGCGAUGACAACCUGUCUCCGCAGCUCAGGCGCCGACCAGGCCCUAUGAGCGGAGCGAGACAGCCCUCGGCCCCGCCCCAACAGAGGAUUGAGCAUCA
B9: chr10:22824096:22824097:-_ENSG00000150867_ENST00000376573|hu_mus|motif|central (ssRNA)
RNA: GGGAGUUCUACAGUCCGACGAUCUUAUUGGGAUGACAGAGAUGGUUACAGACAAAAACCAAAGCAGUUUUGUAAACUUCGGAAAGCAUACAGAUUGGCCACAGAGGAAAUGGUUACUCAGAUCAUGUAUAUGUACCUUCAUUUCAACAGAGGAUUGAGCAUCA
B10: chr3:52741720:52741721:+_ENSG00000114902_ENST00000602728|hu_hu|FALSE|FALSE (ssRNA)
RNA: GGGAGUUCUACAGUCCGACGAUCAUAGAUGGGCCAUGGAGGAAGUGUCAGCAAACAUGAAAAAGCAAAUCCGGCCAUAACUAUAUAGACAGUCCACCCGAACUGUUCAGCCACGUACCCGUAGAUAAAUCCAACUAUUGCAGACAACAGAGGAUUGAGCAUCA
B11: 9459372_9459492_2542_CDS_ENSG00000205339_ENST00000379719|human|control|control (ssRNA)
RNA: GGGAGUUCUACAGUCCGACGAUCCUGUGUAAUAAAAUGAUUUGUAACUGGUUCAACAUUAUUAGGGAAGCGAAGAUUUUCUAAGGUAUUGAGUAGUAGGUGUGGAUUAUAAUACAAAGCUGCAAUUGCAACUUGCAGACACAUCAACAGAGGAUUGAGCAUCA
B12: chr11:60966614:60966615:-_ENSMUSG00000042506_ENSMUST00000041683|mus_mus|motif|central (ssRNA)
RNA: GGGAGUUCUACAGUCCGACGAUCGAGCAGCGGCCGCUUAGUUUUGCCACAGCUAUGUCAUUCCAUCGCAAUUCGCGGGCGGAGGAGCUGGGCUGGGCCCUGUACUGCUCUUUUAUAGCCUGUAAGUGAAAAAACAAAAUCUUACAACAGAGGAUUGAGCAUCA
B13: 38355041_38355161_2037_CDS_ENSMUSG00000044864_ENSMUST00000156038|mouse|control|control (ssRNA)
RNA: GGGAGUUCUACAGUCCGACGAUCAUCAAUCAGGAGGCUCACGACUGACGCGUGCCCUUUGCUUGCAGGCACACAGAGCGCGGCCACGGAGAGGGCUGUCCUGCCGUCCACGUCCUCGUGGUUUACCUCUGCGCCAUGGUCCAGCAACAGAGGAUUGAGCAUCA
B14: chr3:39104626:39104627:+_ENSG00000114742_ENST00000302313|hu_mus|FALSE|FALSE (ssRNA)
RNA: GGGAGUUCUACAGUCCGACGAUCGUGCUGAUUGACACUCCAUAUUCUUAUGAUGGAGUCUCGACCUGCUGUGAAGAGUCUGUUGAGUGCUGGGUCCAGUUGCAGGGCAUUGACUCCAUUCCGAUUGUAUUUCUCCACUUCAUCCAACAGAGGAUUGAGCAUCA
B15: chr6:56729896:56729897:-_ENSMUSG00000059486_ENSMUST00000114323|mus_mus|motif|central (ssRNA)
RNA: GGGAGUUCUACAGUCCGACGAUCCUUAUGCAAAUCAGCGGGUGGGCUGCAUAACUUGUAAACUUUUUCUGCCUGGGGGCGGUAACAGACAGAAGAGUAAAGACUACAAGGGUUUUCUGAGGAUGCUUCAAUGAAAAUCAUCAUCAACAGAGGAUUGAGCAUCA
B16: 126174138_126174520_2540_CDS_ENSMUSG00000042500_ENSMUST00000084289|mouse|control|control (ssRNA)
RNA: GGGAGUUCUACAGUCCGACGAUCAGUGAAGCAGUUGUCAUCCCACAAGACCUGGUAAUGUGAAGGACGGCUGGUUCCCUGAAUUCCUGCAUGACUACAGAGGUAAAAGUCAAACUCAGACGGGUGUGUGACGGUGCUAUCCACCAACAGAGGAUUGAGCAUCA
B17: 83504460_83504580_1148_ncRNA_ENSMUSG00000027091_ENSMUST00000134789|mouse|control|control (ssRNA)
RNA: GGGAGUUCUACAGUCCGACGAUCUCAGGCAGUCUCUAAAACAUAUAAAUACAAAGGAAAGGACACCACUCAUUAAAAACUGCAUCAAACGCAAGUGUCUUAAGUGUGAAUCUGUUGUUUCUGGAAAUUACACAUGCCCAAUGACAACAGAGGAUUGAGCAUCA
B18: chr1:52977185:52977186:+_ENSMUSG00000041426_ENSMUST00000044478|mus_mus|FALSE|FALSE (ssRNA)
RNA: GGGAGUUCUACAGUCCGACGAUCUUUGCUCCAAAAUAAACUUUAGAAUUUCAAAUCACUGCUUCCCAGAGAUUUAAAGUAACUAUUCAAGUCUUCAUCCGUAACAUCUUUUAGAUUGGCUGGUUUCCAUUUUGGAGUCUGGUCCAACAGAGGAUUGAGCAUCA
B19: 80543914_80544034_1648_3pUTR_ENSG00000141568_ENST00000335255|human|control|control (ssRNA)
RNA: GGGAGUUCUACAGUCCGACGAUCUAGGAGGGGCCAGCACGGCUGCCGGGGUGACCACAGCUUGUCCAGAGACAGUGUACGUGUUCGCUGGGGCCAGUCCGGCCACACUGGUGACCGACACCGCUGGGAUCUGGUGGACGACGUCAACAGAGGAUUGAGCAUCA
B20: chr11:31900494:31900495:+_ENSMUSG00000020297_ENSMUST00000020537|mus_hu|FALSE|FALSE (ssRNA)
RNA: GGGAGUUCUACAGUCCGACGAUCAGGAGGACGGCCAGGAGUCCUCCCUCCUCAGCCCGAGCUUGUGGUGCUGAAAGGACAGCGCCUCGCGUGUGUCUGGAUCGGAGCUUCUGAGAGCAGGCGUGAGCGAGCAGGGAAGAGCUCCAACAGAGGAUUGAGCAUCA
B21: chr5:21408736:21408737:-_ENSMUSG00000042453_ENSMUST00000161356|mus_hu|mus_mus_mus_hu_False|28_28 (ssRNA)
RNA: GGGAGUUCUACAGUCCGACGAUCGUUGACAGAGUUGUAGAUGGUGGCUUCAUGGAACUGGAAAGGGGAGCAGCCAAUGCUGUUAGAAGAGGAAGGAAGGCACUGGGUCUGCACGAGCUGCCAGGAAUCCGAUCUUGCAUCCUUCAACAGAGGAUUGAGCAUCA
B22: chr7:149068622:149068623:-_ENSMUSG00000025139_ENSMUST00000001950|mus_hu|mus_mus_mus_hu_False|1_68 (ssRNA)
RNA: GGGAGUUCUACAGUCCGACGAUCGUGAGGCCUCUGAGUGUGGCUUGUGGUCUGUCCUGGGUUAGAGCUGCUGGUAACACGGAACAUACCAUCUAGAACGUUCCAGUCCCGCCUGACACCUUCAUUCCCAAUGGAGAAUCUGCUCAACAGAGGAUUGAGCAUCA

The list shows a part of the results.

The assay deals with T1, UNK ZnF1-3 (human, UniProt Q9C0B0 31-174).
T1 sequence: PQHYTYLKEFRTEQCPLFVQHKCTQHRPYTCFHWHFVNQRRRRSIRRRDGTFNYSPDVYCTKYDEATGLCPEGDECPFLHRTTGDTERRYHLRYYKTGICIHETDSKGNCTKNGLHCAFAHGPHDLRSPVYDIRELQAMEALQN
Description: nsRBNS (natural sequence RNA bind-n-seq); RBNS binding buffer (assumed for nsRBNS): 25 mM Tris pH 7.5, 150 mM KCl, 3 mM MgCl2, 0.01% Triton X-100, 500 ug/ml BSA, 20 U/ml SUPERase-In, 4 C; UNK is unkempt and MSI1 is Musashi-1; names of the RNAs are library labels; protein concentration not given here; high values mean tight binding.
In turn, B1 displayed a binding signal of 0.67 enrichment R.

Regarding B2, the binding signal came to 0.773 enrichment R.

Consider B3, for which the binding signal worked out at 0.425 enrichment R.

In turn, B4 gave a binding signal of 0.499 enrichment R.

B5 came in with a binding signal of 0.823 enrichment R.

The molecule B6 came in with a binding signal of 0.314 enrichment R.

Molecule B7 showed a binding signal of 1.06 enrichment R.

Turning to B8, the binding signal came to 1.07 enrichment R.

Take B9: the binding signal stood at 1.94 enrichment R.

In turn, B10 showed a binding signal of 1.84 enrichment R.

As to B11, the binding signal amounted to 1.62 enrichment R.

The molecule B12 had a binding signal of 0.776 enrichment R.

The molecule B13 came in with a binding signal of 0.515 enrichment R.

In turn, B14 showed a binding signal of 0.438 enrichment R.

In the case of B15, the binding signal turned out to be 1.47 enrichment R.

Consider B16, for which the binding signal came out at 1.37 enrichment R.

For the molecule B17, the binding signal came to 1.91 enrichment R.

Take B18: the binding signal amounted to 0.845 enrichment R.

Consider B19, for which the binding signal came to 0.728 enrichment R.

The molecule B20 showed a binding signal of 1.08 enrichment R.

Consider B21, for which the binding signal was 1.58 enrichment R.

B22 registered a binding signal of 0.736 enrichment R.

The record behind these values is article PMC12136788.
